Measured values taken from PubChem BioAssay AID686978 (National Center for Advancing Translational Sciences (NCATS), 2013).
“And” between values parts separate entries of the source, which are not always exact repeats. Identical values can stand only once. Out of some 420,000 compounds screened, about 64,000 (15%) were called active. Inconclusive results, whose numbers are uncertain, are shown with a selection of clear calls. Calls follow the shape of the dose curve; as a rule, active = well fitted inhibition curve with a large enough effect; inconclusive = small, poorly fitted or top-dose-only effect; inactive = flat fitted curve, though single readings scatter. No potency is given beside an inconclusive call; the fits are too rough.

Assay: qHTS for Inhibitors of human tyrosyl-DNA phosphodiesterase 1 (TDP1): qHTS in cells in absence of CPT; also: nearly all actives have a fitted effect of over 55% in size
Settings: DT40 Tdp1-/- hTDP1 cells, no CPT, ATP luminescence, 48 h; activity change, negative = growth inhibition: at 46.2 µM (top of the series) unless noted
How it was run: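 Stably hTDP1-transfected Tdp1-null chicken DT40 cells were treated with library compounds minus camptothecin and grown for at least 48 hr at 37 °C, after which cellular ATP was quantified by luminescence.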
% is scaled to controls: 0 for no effect and ±100 for the full control effect; potency is read from the fitted curve at half-maximal effect; tags tell the direction and shape of the fitted curve.

Row | SMILES | Potency | activity change, negative = growth inhibition
1 | COc1ccc(OC(C)C(=O)N2CCc3ccccc3C2)cc1 (configuration not stated) | active: 20.6 µM | –
2 | CC(C)C(=O)NC(=S)Nc1sc2c(c1C(N)=O)CCCC2 | inconclusive [inhibitor, single point] | –
3 | CCOC(=O)N1CCN(CC(O)c2ccc3cc[nH]c3c2)CC1 (configuration not stated) | inactive | –
4 | CC(=O)Nn1cnc2c(c1=O)C1(CCCCC1)Cc1ccccc1-2 | inconclusive [inhibitor, single point] | –
5 | Nc1ccc(S(=O)(=O)NC2=NCCCCC2)cc1N | inactive | –
6 | Cc1nn(Cc2ccc(F)cc2)c(C)c1NC(=O)C1c2ccccc2Oc2ccccc21 | inconclusive [inhibitor, partial curve] | –
7 | CC(/C=C/C=C/c1ccccc1)=N/NC(=O)C(O)c1ccccc1 (configuration not stated) | active: 18.4 µM | –
8 | CCOC(=O)C1CCCN(C(=O)c2ccc3c(c2)N(Cc2ccccc2F)C(=O)c2ccccc2S3=O)C1 (configuration not stated) | active: 16.4 µM | –
9 | Cn1ccnc1C1CCCCN1C(=O)c1cc(COc2ccc(F)cc2Cl)on1 (configuration not stated) | inconclusive [inhibitor, single point] | –
10 | CC1CN(C(=O)c2cc3c(=O)n4ccccc4nc3s2)CC(C)O1 (configuration not stated) | inactive | –
11 | COc1ccc(OC)c(C(=O)N(Cc2cc3cccc(C)c3nc2N2CCC(O)CC2)C2CC2)c1 | inconclusive [inhibitor, single point] | –
12 | COc1ccc(NC(=O)Nc2cccc3ccccc23)c(OC)c1 | inactive | –
13 | CSc1ncccc1C(=O)N1CCC1(C)C(=O)NC(C)C (configuration not stated) | inactive | –
14 | Oc1ccc(Nc2ccc3ccccc3c2)cc1 | active: 23.1 µM | –
15 | CCCN(C(=O)Cn1ncc2c([nH]c3ccccc32)c1=O)c1ccc(F)cc1 | inconclusive [inhibitor, single point] | –
16 | Cc1ccc(/C=N/n2c(-c3ccccc3)n[nH]c2=S)cc1 | inconclusive [inhibitor, single point] | –
17 | c1cnc2c(c1)ccc1cccnc12 | active: 3.66 µM and active: 5.01 µM | –
18 | NC(=O)c1ccsc1NC(=O)COC(=O)Cc1ccsc1 | – | inconclusive: -34.1% [inhibitor]
19 | COc1cccc(-c2noc(-c3ccc4c(c3)OCO4)n2)c1 | inconclusive [inhibitor, single point] | –
20 | COc1ccc2[nH]cc(CCNC(=O)c3ccc([N+](=O)[O-])cc3)c2c1 | inconclusive [inhibitor, single point] | –
21 | OC[C@@H]1CN(Cc2ccco2)C[C@H](n2cnc3c(Nc4ccccc4)ncnc32)O1 | inactive | –
22 | O=C(c1cccs1)N1C[C@@H](n2cc(-c3ccc(F)cc3)nn2)[C@H](O)C[C@@H]1c1ccccc1 | active: 20.6 µM | –
23 | CCn1c(=N)n(CC(=O)c2ccc(OC)c(OC)c2)c2ccccc21 | inconclusive [inhibitor, single point] | –
24 | O=C(CCn1nc(-c2ccccc2)c2ccccc2c1=O)Nc1cccnc1 | inconclusive [inhibitor, single point] | –

Row | SMILES | Potency | activity change, negative = growth inhibition
25 | Cc1ccc(CNC(=O)CCc2nnc(Cc3ccc(-c4ccccc4)cc3)o2)o1 | inconclusive [inhibitor, single point] | –
26 | O=S(=O)(NCCc1ccccc1)c1ccc(Br)cc1 | inconclusive [inhibitor, single point] | –
27 | O=C(COC(=O)c1ccc(O)cc1)Nc1ccc(Cl)cc1 | inconclusive [inhibitor, single point] | –
28 | COC(=O)C1C2CC3c4[nH]c5cc(OC)ccc5c4CCN3CC2CC(OC(=O)c2cc(OC)c(OC)c(OC)c2)C1OC (configuration not stated) | inconclusive [inhibitor, partial curve, poor fit] | –
29 | Cc1ccn2c(=O)c(NC(=O)c3cccc4ccccc34)c(C)nc2c1 | inconclusive [inhibitor, single point] | –
30 | CCCc1n(CC(O)COCC2CC=CCC2)c2ccccc2[n+]1C (configuration not stated) | active: 10.3 µM | –
31 | Cc1ccc(-n2nc(C)c(C(=O)Nc3cccc(C(=O)NC4CC4)c3)n2)c(C)c1 | active: 8.2 µM | –
32 | CCc1ccccc1NC(=O)Nc1cc(C(=O)NCc2ccccc2OC)ccc1N1CCCC1 | inconclusive [inhibitor, single point] | –
33 | CN1CCN(c2ccc(NC(=O)c3ccc4c(c3)OCCO4)cc2)CC1 | inactive | –
34 | CCCN(C(=O)COC(=O)c1cc(CC)c(C)s1)c1c(N)n(Cc2ccccc2)c(=O)[nH]c1=O | inconclusive [inhibitor, partial curve] | –
35 | C[C@H](CO)N1C[C@H](C)[C@@H](CN(C)C(=O)Nc2ccc(C(F)(F)F)cc2)Oc2c(NC(=O)C3CCCCC3)cccc2C1=O | inconclusive [inhibitor, single point] | –
36 | Cc1nn(-c2ccc(Cl)cc2Cl)c(C)c1C(=O)O | inactive | –
37 | CC1=C(C(=O)N(C(C)C)C(C)C)CC(CC(=O)NC2CCCCC2)C(=O)N1Cc1ccc(C(C)(C)C)cc1 (configuration not stated) | active: 20.6 µM | –
38 | O=C(O)/C=C/C(=O)Nc1ccc(Oc2ncnc3cc(Cl)ccc23)nc1 | inconclusive [inhibitor, single point] | –
39 | O=C(CCCN1CCC(c2ccccc2)C1)c1ccc2c(c1)OCCO2 (configuration not stated) | inactive | –
40 | Cn1c(=O)c(-c2cc(Br)ccc2N)nc2ccccc21 | – | inconclusive: -31.2% [inhibitor]
41 | CCOc1ccc(Br)cc1/C=N/O | inactive | –
42 | Cn1c(CN2CCN(C(=O)c3ccc(F)cc3)CC2)nc2cc([N+](=O)[O-])ccc21 | inconclusive [inhibitor, single point] | –
43 | CN(C)CCN(C(=O)c1ccc(C(=O)c2ccccc2)cc1)c1nc2cc3c(cc2s1)OCO3 | – | inconclusive: -30.1% [inhibitor]
44 | COc1cccc(-c2nc(SCC(=O)NCC3CCCO3)c(-c3ccc(Cl)cc3)[nH]2)c1 (configuration not stated) | inconclusive [inhibitor, single point] | –
45 | O=C(C1CC1)N1CCc2sccc2C1c1ccc(Cl)cc1 (configuration not stated) | inconclusive [inhibitor, single point] | –
46 | O=C(N/N=C/c1ccc(OC(F)F)cc1OC(F)F)NC1CCCCC1 | inconclusive [inhibitor, single point] | –
47 | CCOC(=O)C1(Cc2ccccc2C)CCCN(Cc2cc(OC)c(O)c(OC)c2)C1 (configuration not stated) | inconclusive [inhibitor, single point] | –
48 | CCOc1ccc2[nH]c(SCC(=O)OC)c([N+](=O)[O-])c2c1 | active: 4.61 µM | –

Row | SMILES | Potency | activity change, negative = growth inhibition
49 | CN(C)CCNC(=O)C(=O)NCC(c1cccnc1)N1CCN(c2ccccc2)CC1 (configuration not stated) | inactive | –
50 | O=C(Cc1ccccc1)NCC(=O)N1CCCC1 | inactive | –
51 | O=C1OCc2ccc(NC(=O)c3sccc3Cl)cc21 | inactive | –
52 | CC(C)(C)c1ccc(C(=O)NNC(=O)c2ccc(Cl)cc2)cc1 | inconclusive [inhibitor, single point] | –
53 | C#CCN(C[C@@H]1[C@@H](OC(=O)NC2CC2)[C@@H](OC(=O)NC2CC2)Cn2c(=O)n(CCCCCC)c(=O)n21)S(=O)(=O)c1ccc(C)cc1 | active: 18.4 µM | –
54 | Cc1cccc(/C=N/n2c(C)nc3ccccc3c2=O)c1 | inconclusive [inhibitor, single point] | –
55 | CCOc1ccc(-n2c(C)cc(/C=N/Nc3nc(C)cc(=O)[nH]3)c2C)cc1 | active: 11.6 µM | –
56 | CN(c1cccc(F)c1)c1cc2c(c3c1ccn3C)C1CCC2O1 (configuration not stated) | active: 16.4 µM | –
57 | C(=C\c1ccccc1)/CSc1nc2ncccc2[nH]1 | inactive | –
58 | COc1ccc(N2CCN(C(=O)Cn3c(-c4cccs4)cc4ccccc43)CC2)cc1 | inconclusive [inhibitor, single point] | –
59 | Cc1ccccc1C(=O)NCC(=O)NNC(=O)c1cccc(Cl)c1 | inconclusive [inhibitor, single point] | –
60 | COc1ccccc1C(=O)C1CCCN(C(=O)CSc2ccccn2)C1 (configuration not stated) | inconclusive [inhibitor, single point] | –
61 | CC(C)CCN1CCN(CC#Cc2ccccc2)CC1CCO (configuration not stated) | inconclusive [inhibitor, single point] | –
62 | O=C(CN(Cc1ccccc1F)C(=O)c1csnn1)NC1CCCCC1 | inconclusive [inhibitor, single point] | –
63 | O=C(Nc1ccc(S(=O)(=O)N2CCCCC2)cc1)c1cnccn1 | – | inconclusive: -34.1% [inhibitor]
64 | Cc1cccc(C)c1N(CC(=O)NCc1ccco1)C(=O)CNS(=O)(=O)c1ccc(F)cc1 | inconclusive [inhibitor, partial curve] | –
65 | CC(=O)c1ccccc1NC(=O)COC(=O)CCCN1C(=O)c2cccc3cccc(c23)C1=O | inconclusive [inhibitor, partial curve] | –
66 | Clc1cccc(-n2ncc3c(Nc4ccc5c(c4)OCCO5)ncnc32)c1 | inconclusive [inhibitor, partial curve] | –
67 | O=C(O)c1cc(S(=O)(=O)NCCCN2CCCC2=O)ccc1Cl | inactive | –
68 | COC(=O)c1ccc(NC(=S)NC2CC3CCC2C3)cc1 (configuration not stated) | active: 20.6 µM | –
69 | CC=Cc1cc(OC)c2c(c1)C(C)C(c1ccc(O)c(OC)c1)O2 (configuration not stated) | inconclusive [inhibitor, partial curve] | –
70 | COc1ccc(C(=O)Nc2cccc(-c3ccc(N4CCOCC4)nn3)c2)cc1OC | active: 9.2 µM | –
71 | CC(=O)N1CCc2cc(S(=O)(=O)NC(Cc3ccccc3)C(=O)Nc3ccc(C)cc3C)ccc21 (configuration not stated) | inactive | –
72 | COc1cc(OC)c(N(C)C(=O)CSc2c3c(nc4ccc(Cl)cc24)CCCC3)cc1Cl | inconclusive [inhibitor, single point] | –
